The results in this text go back to ChEMBL document CHEMBL4888484, “Replenishing the malaria drug discovery pipeline: Screening and hit evaluation of the MMV Hit Generation Library 1 (HGL1) against asexual blood stage Plasmodium falciparum ,using a nano luciferase reporter read-out” (2022).

As usually defined, the % Inhibition is the change of the read-out against control, counted positive when it falls.

The campaign covered roughly 150,000 compounds. About 540 (0.36%) showed an effect of 50% or more. Some of the results follow.

The test relates to Plasmodium falciparum. The experiment in a line: Primary screen in NF54 nanoGlo assay, in single point, at 2uM, 72h; a lower Z score goes with more inhibition. It counts as functional, Erythrocyte. Particulars: timepoint 72 hour.
Regarding `N[C@@H](c1ccc(Cl)cc1)c1ccccc1C1CC1`, the “% Inhibition” value is given as 22% and the Z score is on record as -2.83.

For `O=C(O)[C@@H]1C[C@H](O)CCN1C(=O)C(c1ccccc1)c1ccccc1`, the “% Inhibition” value stood at 5% and the Z score was -0.7.

With `Cc1nc2ccc(NC(=O)C[C@@H]3N=C(O)c4ccccc4NC3=O)cc2[nH]1`, the “% Inhibition” value worked out at 0% and the Z score was -0.01.

For the molecule `CC(C)CCn1cc(C(=O)N2CCc3c(ncn3-c3ccc(F)cc3)C2)nn1`, the “% Inhibition” value was -6% and the Z score is 1.21.

`COc1ccc(C(=O)Nc2cc(F)c3nc(N4CCOCC4)ccc3c2)c(OC)c1`: the “% Inhibition” value is on record as -1% and the Z score turned out to be 0.1.

With `CN1CCCC[C@@H]1CCC(=O)NCCOCc1ccc(Cl)cc1`, the “% Inhibition” value is recorded as -16% and the Z score is 1.99.

`Cc1nnsc1C(=O)N[C@@H](C)c1csnn1`: the “% Inhibition” value is on record as -5% and the Z score amounted to 1.01.

In the case of `C=CCNC(=O)CN(c1cccc(Br)c1)S(C)(=O)=O`, the “% Inhibition” value worked out at 0% and the Z score was determined as 0.05.

Turning to `CN1CCOC(CN(CC2CC2)C(=O)C2CCCc3nn(C)cc32)C1` (stereo unspecified), the “% Inhibition” value is -8% and the Z score was determined as 0.78.

Consider `O=C(Nc1cccc(OCC(=O)N2CCCC2)c1)c1cc(Cl)cc(Cl)c1`, for which the “% Inhibition” value is recorded as -9% and the Z score was found to be 1.67.

For `CCn1cc([C@H]2OCC[C@@H]2CN2CCn3c(nnc3C3CCCC3)C2)cn1`, the “% Inhibition” value is -8% and the Z score was determined as 1.45.

For `O=C1C[C@H](N2CCc3ccccc3C2)C(=O)N1CCc1ccccc1`, the “% Inhibition” value was -4% and the Z score is listed as 0.51.

Consider `CCc1noc(C)c1CNC(=O)Cn1nc(C)c2cccnc21`, for which the “% Inhibition” value was -11% and the Z score is recorded as 1.24.

Take `CCc1nn(C)c(Cl)c1CN1CCC(OCc2cccnc2)CC1`: the “% Inhibition” value was -3% and the Z score came out at 0.5.

Turning to `COc1cccc(-c2cn3c(n2)N(C(=O)C2CCCC2)CCC3)c1`, the “% Inhibition” value was determined as 1% and the Z score was -0.21.

`C=CCN(Cc1snnc1C)S(=O)(=O)c1ccc(OC)cc1`: the “% Inhibition” value worked out at 3% and the Z score is reported as -0.49.

`O=C(c1ccc(=O)[nH]c1)N1CCN(S(=O)(=O)c2ccc(Br)cc2)CC1`: the “% Inhibition” value is given as 5% and the Z score is -0.92.

In the case of `Cc1cc(NC(=O)N2CCCc3ccccc3CC2)n(C)n1`, the “% Inhibition” value is given as 1% and the Z score is -0.13.

Turning to `O=S(=O)(c1ccccc1)N1CCN(S(=O)(=O)N2CCCCCC2)CC1`, the “% Inhibition” value is given as 2% and the Z score is -0.37.

On to `Cc1cnc(CCN(C)S(=O)(=O)CCN2CCCC2)s1`, for which the “% Inhibition” value is on record as -7% and the Z score came out at 0.93.

`Cn1cc(NCc2cn(C)nc2C(C)(C)C)nn1`: the “% Inhibition” value is on record as -4% and the Z score was 0.54.

On to `CC(C)CC[C@H](C)NS(=O)(=O)c1ccc(Cl)s1`, for which the “% Inhibition” value is on record as 0% and the Z score is given as -0.03.

On to `CC1CC1C(=O)N1CCOC(CS(=O)(=O)NCc2ccccn2)C1` (stereo unspecified), for which the “% Inhibition” value was -1% and the Z score stood at 0.12.

On to `O=C(CCc1ccco1)NC[C@@]12CCC[C@@H]1OCC2`, for which the “% Inhibition” value is given as -10% and the Z score was determined as 0.98.

Turning to `CC(C)c1cc(=O)[nH]c(-n2nc(C3CC3)cc2NC(=O)c2ccccc2C(F)(F)F)n1`, the “% Inhibition” value came to 18% and the Z score is on record as -3.33.

`OCCN1CCOC[C@H]1c1ccc(F)cc1`: the “% Inhibition” value amounted to 8% and the Z score was -0.91.

On to `CC(C)COc1ccc(-c2cc(C(=O)N3C[C@H](C4CC4)[C@@H](N)C3)[nH]n2)cc1`, for which the “% Inhibition” value is reported as 2% and the Z score is reported as -0.3.

Regarding `CN1CCN(C(=O)c2cc(=O)[nH]c(C3CC3)n2)c2ccccc2C1`, the “% Inhibition” value is recorded as -5% and the Z score is 0.85.

Take `CC(=O)Nc1cc(F)c(S(=O)(=O)OCC(F)(F)F)cc1Cl`: the “% Inhibition” value was found to be 2% and the Z score is recorded as -0.35.

With `FC(F)(F)c1cccc(N2CCN(c3ncnc4[nH]ccc34)CC2)c1`, the “% Inhibition” value is given as 3% and the Z score is on record as -0.67.

Turning to `CCc1c(C(=O)NC(C)C2CCCO2)csc1C` (stereo unspecified), the “% Inhibition” value is on record as 0% and the Z score was determined as 0.07.

Regarding `CC(C)(C)c1ccc([C@@H]2CCCN2C(=O)c2cccnc2O)cc1`, the “% Inhibition” value is on record as 3% and the Z score is -0.29.

Take `O[C@H]1CN(CCCC(F)(F)F)C[C@@H]1N1CCN(c2ccccn2)CC1`: the “% Inhibition” value is listed as -6% and the Z score worked out at 1.13.

In the case of `Cc1sc(C(=O)N2CCNC(=O)C2(C)C)cc1-c1ccc(F)cc1`, the “% Inhibition” value amounted to 13% and the Z score is reported as -1.56.

On to `C[C@@H]1C[C@H]1C(=O)Nc1cccc(-c2cn[nH]c2)c1`, for which the “% Inhibition” value was determined as 4% and the Z score was -0.74.

`C[C@@H](CN(C)C(=O)Cc1cccc(Br)c1)C(=O)O`: the “% Inhibition” value is -2% and the Z score came to 0.2.

With `CCCC1CC(C(=O)NC(C#N)c2ccc(F)cc2F)CCO1` (stereo unspecified), the “% Inhibition” value is recorded as 0% and the Z score is recorded as -0.04.

As for `CCOc1ccc(-c2nc(CN3CCO[C@H]4COCC[C@H]43)co2)cc1`, the “% Inhibition” value is listed as -10% and the Z score was determined as 1.75.

As for `CC(C)CC(=O)N[C@H]1CCCC(F)(F)C1`, the “% Inhibition” value was 4% and the Z score is on record as -0.51.

As for `CC(C)c1noc(Cc2ccc(NC(=O)NCc3ccco3)cc2)n1`, the “% Inhibition” value is reported as -4% and the Z score was found to be 0.54.

`Cc1scc(CN2CCc3ccccc3C2)c1C`: the “% Inhibition” value was -19% and the Z score is reported as 1.8.

On to `Cc1cc(N2CC3CC2CO3)nc(C2CC2)n1` (stereo unspecified), for which the “% Inhibition” value is recorded as -13% and the Z score amounted to 1.64.

Turning to `CC1CN(C)CC(C)N1C(=O)c1ccc(-n2cc(Br)cn2)nn1` (stereo unspecified), the “% Inhibition” value is -2% and the Z score amounted to 0.36.
